The BET-seq Pho4 binding data (Le et al. 2018)
The list shows a part of the results. These are noisy estimates, calculated here from bound and input reads.

Target: T1, Pho4 (S. cerevisiae) (UniProt P07270)
T1 sequence: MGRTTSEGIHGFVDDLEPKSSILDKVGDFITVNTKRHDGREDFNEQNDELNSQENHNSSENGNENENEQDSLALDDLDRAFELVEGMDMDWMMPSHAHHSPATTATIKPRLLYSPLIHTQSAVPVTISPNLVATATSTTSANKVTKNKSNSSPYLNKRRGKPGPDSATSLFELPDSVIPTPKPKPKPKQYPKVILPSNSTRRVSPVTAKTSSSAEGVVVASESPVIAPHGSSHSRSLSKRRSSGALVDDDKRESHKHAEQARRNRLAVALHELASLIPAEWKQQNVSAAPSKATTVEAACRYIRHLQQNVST
Assay: relative binding free energy (BET-seq); higher = weaker binding
Settings: reference: library average

Sequence	relative binding free energy [kcal/mol]
AAGAGCACGTGGGCTT	-0.2
GTGGACACGTGTGTTA	0.16
TTTTTCACGTGCTTGT	0.27
TAGGACACGTGATATG	0.11
GTGGACACGTGACGTG	0.09
TAGAGCACGTGGAAGG	0.04
GGAGTCACGTGGAATT	0.44
TATAGCACGTGATATT	0.16
TTGGGCACGTGGATGA	0.01
ATGTCCACGTGGATTG	-0.07
GTCGTCACGTGTGCTG	0.07
GGTATCACGTGGCAGC	0.29
TAACTCACGTGGTGTT	0.22
TTCGGCACGTGAGGTT	0.2
CGTGGCACGTGGAAAG	-0.02
TAAGGCACGTGGTGCA	-0.16
TATAACACGTGAATTG	0.17
ACTGCCACGTGTGTTT	0.13
ATGTGCACGTGGTGTA	-0.17
TTTAGCACGTGGCTCG	-0.08
CGGGTCACGTGATGTG	0.19
ATGGGCACGTGTGGCC	-0.12
TTAACCACGTGTAGTT	-0.14
TTGTTCACGTGAATCG	0.33
TTGAGCACGTGGGCGG	-0.2
TTGCACACGTGGGATA	-0.02

Sequence	relative binding free energy [kcal/mol]
ATCATCACGTGTGAGG	0.18
GATTGCACGTGTAATA	0.22
TCAGGCACGTGTTAAT	-0.02
TTAATCACGTGGTTCA	-0.01
GTTGGCACGTGCACGG	-0.03
CGATGCACGTGGTGGG	-0.09
AACGGCACGTGATGTT	0.03
TGAGTCACGTGTATTC	0.18
TGTATCACGTGTTAAT	0.09
AAGAACACGTGGTTGG	-0.13
CGATGCACGTGGTTAT	0
TTGGACACGTGCGTAT	0.03
AGGATCACGTGGCGGG	-0.02
GTTTGCACGTGCAGTA	0.08
AAGTTCACGTGGTGTA	0.18
ATTTTCACGTGGAGGG	0.19
GGGAACACGTGAGGTG	0.34
TAGCACACGTGGGGTA	-0.18
AATGGCACGTGAGGGC	0.09
CTATGCACGTGGATAT	-0.01
AGTTTCACGTGTTTGA	0.21
TTTTGCACGTGTTACT	0.05
GGTAACACGTGACTGG	0.16
ATTGGCACGTGTATCA	-0.06
TAATTCACGTGGTAGT	0.13
GCTTTCACGTGGGCTG	0.26

Sequence	relative binding free energy [kcal/mol]
ACGGGCACGTGGGATT	-0.05
GGGGCCACGTGCGTAA	-0.03
TGTTACACGTGAGGTC	0.28
TGGGGCACGTGACGAT	-0.01
GTTTACACGTGCGGCG	0.13
TGTAACACGTGCTGGA	-0.06
AGTGCCACGTGAAGGG	0.14
GTGTGCACGTGTAAAA	0.13
ATGGGCACGTGCAGAT	-0.13
ATAGTCACGTGTCGTT	0.05
TTTGACACGTGCATGG	0
TTTCACACGTGGAGTT	0.04
TTATGCACGTGTTTAT	0.01
TTAGTCACGTGTTCAG	0.08
TGCGGCACGTGCTTGA	-0.09
TTTCTCACGTGCGAGG	0.29
CGTTACACGTGGATTT	0.15
TCTTACACGTGGGTTG	0.08
GTGGGCACGTGATGGG	0.09
TGTATCACGTGTAGTT	0.12
AATCGCACGTGGAGTT	0.09
GATTACACGTGATGTT	0.13
GGGTACACGTGATGTT	0.2
TAAAACACGTGTGAGG	0.19
GTGGGCACGTGAAGTT	0.27
GAGGGCACGTGTCGTG	-0.01

Sequence	relative binding free energy [kcal/mol]
GTGTGCACGTGGTAAT	0.04
TTTGGCACGTGCTTTG	-0.16
GATGGCACGTGGGTAC	-0.03
TGGGGCACGTGTCGGC	-0.27
GGTAGCACGTGGTAGG	-0.11
TTTTTCACGTGTATGC	0.34
CGTGGCACGTGAAAGT	0
CAGTGCACGTGCGATG	0.05
TGGTGCACGTGTGTCT	-0.06
AGTGCCACGTGTGGGG	-0.07
TGTCACACGTGTTTGC	0.15
CTAACCACGTGGGTGG	-0.1
AATGGCACGTGTGCTG	-0.13
AGGTACACGTGGGGGT	-0.11
TTGCTCACGTGGTCGT	0.25
CAAAGCACGTGGGGTT	-0.29
TGGTACACGTGAAGAG	0.23
TTTAACACGTGGGGCT	-0.04
GGTTGCACGTGGGACG	-0.07
GTTCACACGTGAGTTT	0.31
GAGGACACGTGGGGAT	0.07
GGGGTCACGTGGAGCA	0.12
ATGGTCACGTGCTGTT	-0.02
AGTTGCACGTGATTGG	0.15
CAGATCACGTGTGGAT	0.27
CTGTGCACGTGTGGAC	0.06

Sequence	relative binding free energy [kcal/mol]
GCAGTCACGTGGGGAT	0.04
TAAATCACGTGGTGGT	0.16
ATAAGCACGTGGTGGA	-0.14
ATAAACACGTGTGTTG	-0.07
TGATACACGTGTGATG	0.02
TTCGGCACGTGTGGCG	-0.03
AGGGGCACGTGAATTT	0.18
TTCGGCACGTGACGGT	-0.04
AGGTTCACGTGAAGAA	0.39
TAGGTCACGTGTTACT	0.17
GAGTACACGTGGTTTG	0.09
TTTGCCACGTGATATA	0.13
AAATTCACGTGACTGG	0.42
CGGGGCACGTGTAGGG	-0.06
CAGATCACGTGAGGGT	0.23
TACATCACGTGGTGGA	-0.02
TTAGACACGTGTATGG	0.07
TATTACACGTGTACTT	0.19
TGTTGCACGTGATTGG	0.17
GGGTGCACGTGTCATT	0.06
TACTGCACGTGTTAAT	0.08
GAGGGCACGTGGAGTT	0
TTCGTCACGTGCTGTG	-0.03
TTCGACACGTGAGTTG	0.27
TTATGCACGTGTATGG	-0.03
TGCGGCACGTGGAAAG	0.11

Sequence	relative binding free energy [kcal/mol]
ATGTACACGTGAATAT	0.28
TAGAGCACGTGAGCGT	0.15
TGTAGCACGTGCTCTG	-0.02
CTTTGCACGTGTAAAT	0.12
ATATTCACGTGGTTAC	0.23
GGTTTCACGTGTTAAC	0.35
CTTGGCACGTGACGTG	0.02
GGCTTCACGTGTTTTG	0.4
GTGTACACGTGGAGTA	0.09
ATTTTCACGTGACATG	0.2
GTATCCACGTGTGGGC	0.23
TCTTGCACGTGTTAGG	0.01
TGAGGCACGTGGATAT	-0.16
GTAGACACGTGGATAG	0.09
GTAAGCACGTGAATAG	0.37
GTTGTCACGTGAATGT	0.25
TGGAGCACGTGGCATA	-0.14
GACGGCACGTGTATTG	0.09
AGGGTCACGTGACTTG	0.19
CGTGACACGTGTGTGG	-0.02
GGTCGCACGTGTGGGT	0.05
CTGGTCACGTGACTTT	0.27
CGTGGCACGTGCGTGT	-0.17
GAATTCACGTGGTAAG	0.36
GGGATCACGTGGTTGG	0.22
GCGACCACGTGGGTGG	-0.12

Sequence	relative binding free energy [kcal/mol]
GGTGACACGTGGTACA	0.12
GTGGTCACGTGAATTT	0.51
ATGGGCACGTGCGGTT	-0.15
TGAGTCACGTGTTTTA	0.09
TTGTCCACGTGTGGTC	0.15
AGCGTCACGTGGGTGA	-0.09
GATGGCACGTGAACGG	0.24
TGTTTCACGTGATTGG	0.39
AGTTTCACGTGGGCAT	0.14
CGGATCACGTGGTGAT	0.13
GGGTTCACGTGAGGAA	0.49
TTAGTCACGTGTGGGT	0.2
TGCGGCACGTGTAAAA	0.16
GTAAGCACGTGGGTTC	-0.07
TAGTTCACGTGCTTGA	0.38
GGTGCCACGTGTGGCT	-0.07
TTAGACACGTGGCGTT	0.01
GGAGGCACGTGCTGAT	-0.08
GTAAGCACGTGTGATT	0.05
CGAATCACGTGGTTTG	0.17
AGGTGCACGTGTGAGA	0.04
TGTGTCACGTGTAGAC	0.03
TGAGTCACGTGAAGGT	0.42
GTTCTCACGTGTATGG	0.16
TGTCTCACGTGCGTGG	0.06
AATTTCACGTGCTTTA	0.25

Sequence	relative binding free energy [kcal/mol]
TAATGCACGTGTAGAG	-0.13
AAGATCACGTGGTCGT	0.03
GTATTCACGTGCAGTA	0.26
GATGCCACGTGAGGTT	0.2
ATGAACACGTGTTGTG	-0.15
AATCGCACGTGGGGGG	-0.14
GAGGGCACGTGTTATA	-0.06
TAGTGCACGTGGTGGT	-0.11
TATAGCACGTGCGGTG	-0.25
AACGCCACGTGGTGTG	-0.13
AATATCACGTGCGGTA	0.14
CAAGACACGTGTGTGG	-0.04
TCCGGCACGTGGGTGT	-0.3
TGAGTCACGTGCGCGG	-0.19
GTTATCACGTGAATAG	0.39
CGGTACACGTGGGGTT	0.01
GCTGTCACGTGCTTGT	0.07
GGGAACACGTGCTTGG	0.19
ATTTACACGTGATGGA	0.19
GAATACACGTGTGGGT	0.15
TGTTGCACGTGTCTTT	-0.09
TGTAGCACGTGTGTGT	-0.04
GTGACCACGTGTTTGA	0.02
TGCAACACGTGGGCGT	-0.08
TAGCGCACGTGTGAGT	0.02
TGGGTCACGTGAGTTG	0.26

Sequence	relative binding free energy [kcal/mol]
CTTTTCACGTGAGAGT	0.49
AAGGGCACGTGTGTAA	-0.12
CAGTTCACGTGAATAG	0.52
AGTGGCACGTGTTGGC	-0.03
ATAGTCACGTGTGTGG	0.02
TCAAGCACGTGGGGTT	-0.21
GGGGGCACGTGAATCG	0.29
TTGGGCACGTGACAAT	-0.11
GTATGCACGTGCATTG	-0.03
AGCTACACGTGATGGG	0.29
AAGTGCACGTGAATGT	0.04
TTTGGCACGTGTGAAA	0.03
TCCTGCACGTGCGTGG	0.04
GGAAGCACGTGATGGT	0.06
GTGGACACGTGTTAAT	0.11
TTATCCACGTGGAGGT	0.05
TGGAGCACGTGATAAG	0.02
AAGCGCACGTGTTATG	-0.02
TGCGTCACGTGGTTGC	-0.09
ACGGTCACGTGATAGT	0.15
CGTGCCACGTGTGGGA	0.06
GGAACCACGTGTTGGG	-0.04
